“And” between values parts separate entries of the source, which are not always exact repeats. Identical values can stand only once. Among all 390,000 compounds or so, about 150 (0.038%) were called active. This list was built around the results that the source calls inconclusive (neither active nor inactive); the mix of calls is not that of the screen. Calls follow the shape of the dose curve; as a rule, active = well fitted inhibition curve with a large enough effect; inconclusive = small, poorly fitted or top-dose-only effect; inactive = no such curve, though single readings can be large or run the other way. A potency beside an inconclusive call is a rough fit, not a confirmed value.
Target: Regulator of G-protein signaling 4 (Homo sapiens) (UniProt P49798)
Chain of UniProt P49798 (P49798 whole entry, looked up): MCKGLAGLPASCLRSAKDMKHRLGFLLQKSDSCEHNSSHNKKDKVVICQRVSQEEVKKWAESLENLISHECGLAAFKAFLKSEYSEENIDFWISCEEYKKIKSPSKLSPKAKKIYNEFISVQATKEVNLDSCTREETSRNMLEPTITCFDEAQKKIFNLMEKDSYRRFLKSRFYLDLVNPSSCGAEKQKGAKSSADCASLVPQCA
Assay: Inhibitors of Regulator of G Protein Signaling (RGS) 4: qHTS; also: nearly all actives have a fitted effect of over 75% in size
Details: Transcreener GDP fluorescence polarization, RGS4-accelerated GTP hydrolysis; series mostly up to 114 µM; activity change, negative = inhibition: at the top concentration
Source text: G-protein-coupled receptors (GPCRs) are well-established targets for drug discovery and development. Members of the "regulator of G-protein signaling" (RGS)-protein superfamily have recently emerged as critical modulators of specific GPCR signaling pathways. […] Combining specific RGS domain inhibitors with existing GPCR agonists should potentiate cellular responses and could also increase the specificity of action of existing therapeutics. Small molecule modulators of RGS domain activity should also have clinical utility in inhibiting or potentiating the actions of endogenous GPCR agonists. In particular, the diversity of RGS proteins with highly localized and dynamically regulated distributions in the human brain makes this family of proteins attractive targets for pharmacotherapy of central nervous system (CNS) disorders such as Parkinson's disease, schizophrenia, and anxiety.
This assay was used to screen the NIH Molecular Libraries Small Molecule Repository (MLSMR) in order to identify a small molecule that inhibits RGS4.
NIH Chemical Genomics Center [NCGC]
NIH Molecular Libraries Probe Centers Network [MLPCN]
Assay Submitter (PI): David Siderovski, University of North Carolina Chapel Hill (School of Medicine)
Two microliters of 500nM (2x working concentration) is dispensed into black medium-binding solid-bottom Kalypsys plates. Then with the Kalypsys pintool 23nl of control and compounds are transferred; the control compound is […] CCG-4986 (working concentration). After a 10 minute incubation at room temperature 2ul of antibody is added with the Kalypsys dispenser; (-)RGS4/Transcreener GDP solution in columns 3 and 4 which consisted of 10nM (2x working concentration) Alexa633, 20uM GTP, and 20 ug/ml GDP antibody and (+)RGS4/Transcreener GDP solution in columns 1,2, and 5 to 48 which consists of 900nM RGS4 (2x working concentration), 10nM Alexa633, 20 ug/ml GDP antibody. The plate is centrifuged at 1000 RPM for 15 seconds to remove any possible bubbles and then incubated for 5 minutes at ambient room temperature. An initial fluorescent polarization read (620 nm/688 nm) is performed on the Envision before the plate is incubated for 90 minutes at 30 deg C at a relative humidity of 80%. The plate is once more centrifuged at 1000 RPM for 15 seconds and another Envision fluorescent polarization (620 nm/688 nm) read is carried out.
% is scaled to controls: 0 for no effect and ±100 for the full control effect; potency is read from the fitted curve at half-maximal effect; tags tell the direction and shape of the fitted curve.

SMILES	activity change, negative = inhibition	Potency
Cc1cccc(CN2C(=O)/C(=C\c3ccc(C(=O)NCCN4CCOCC4)cc3)Sc3ccccc32)c1	inactive: 25% [at 11.4 µM]	
CCCCCCSc1cc(-c2nc3ccc(Cl)cn3c2NCCCC)ccc1OC	inactive: -7.4%	
COc1ccc(S(N)(=O)=O)cc1N(C)S(=O)(=O)c1ccccc1		inconclusive: 20 µM [inhibitor, full curve, poor fit]
O=C(O)CCN1C(=O)/C(=C/c2ccc(-c3nc4ccccc4s3)o2)SC1=S		inconclusive: 100 µM [inhibitor, partial curve, poor fit]
COc1cc(C2C(C#N)=C(N)Oc3n[nH]c(-c4ccncc4)c32)cc(OC)c1OC (stereo unspecified)		inconclusive: 100 µM [inhibitor, single point]
N[C@@H](CCC(=O)N[C@H](CSN=O)C(=O)NCC(=O)O)C(=O)O		inconclusive: 9.46 µM [inhibitor, partial curve]
CC(C)Cc1ccc(C(C)CC2=CCC(CN(C)C)C2=O)cc1 (stereo unspecified)		inconclusive: 35.5 µM [inhibitor, partial curve, poor fit]
Cc1ccc2c(c1)C(=O)N1[C@H]3c4cc(Cl)ccc4OC[C@@H]3[C@H](c3ccccc3)[C@]1(C)C(=O)N2	inactive: 1.17%	
Cc1ccc2c(c1C)-c1c(ccc(C)c1C)C(=O)C2=O		inconclusive: 44.7 µM [inhibitor, partial curve, poor fit]
Cc1ccccc1CS(=O)(=O)c1nnc([C@H](Cc2ccccc2)NC(=O)OC(C)(C)C)o1		inconclusive: 31.6 µM [inhibitor, partial curve, poor fit]
O=C(O)c1ccc(N/N=C/C2=C(N3CCOCC3)C(=C\c3ccccc3)/CC2)cc1		inconclusive: 89.1 µM [inhibitor, partial curve, poor fit]
Cc1cccc(C)c1Nc1nnc(SCC(=O)NC(=O)c2cccn2C)s1		inconclusive: 89.1 µM [inhibitor, single point]
CCc1ccc(OCCCC(=O)Nc2ccc(N3CCOCC3)cc2)cc1		inconclusive: 44.7 µM [inhibitor, partial curve, poor fit]
O=C1CN(c2ccccc2)C(=S)N1C(=O)c1ccccc1		inconclusive: 50.1 µM [inhibitor, partial curve, poor fit]
O=c1[nH]c(=S)c2[nH]cnc2[nH]1	inactive: -0.263%	
CCOC(=O)N1CCc2c(sc(NCc3sccc3C)c2C(=O)Nc2ccccc2OCC)C1		inconclusive: 50.1 µM [inhibitor, partial curve, poor fit]
Cc1cc([N+](=O)[O-])nn1CC(=O)Nc1ccccn1		inconclusive: 79.4 µM [inhibitor, partial curve, poor fit]
COc1ccc(NC(=O)CSc2nnc3c(n2)[nH]c2ccc(S(=O)(=O)N(C)C)cc23)c(OC)c1	inactive: -1.98%	
CC(C)c1nnc(NC(=O)c2nc(S(=O)(=O)Cc3ccccc3)ncc2Cl)s1		inactive and inconclusive: 56.2 µM [inhibitor, partial curve, poor fit]
CCN(CC)S(=O)(=O)c1ccc2oc(SCC(=O)NC3CC3)nc2c1		inconclusive: 50.1 µM [inhibitor, partial curve, poor fit]
Cc1cc(NC(=O)Nc2ccc(N(C)C)cc2)c2cc(F)cc(F)c2n1		inconclusive: 0.597 µM [inhibitor, full curve, poor fit]
C#CC[N+](C)(C)CC#Cc1ccc(C)cc1	inactive: 4.54%	

SMILES	activity change, negative = inhibition	Potency
O=C(CN1C(=O)c2ccccc2S1(=O)=O)N1CCN(c2cccc(Cl)c2)CC1	inactive: -31.5%	
COc1ccccc1/C=C/CN1CCC(Oc2cc(C(=O)NC3CC3)ccc2OC)CC1	inactive: 20.3%	
COc1ccc(C(C)(C)C)cc1NC(=O)CCCn1c(=O)oc2ccccc21	inactive: 14.1%	
CCNc1ccc(Br)cc(C(=O)/C=C/c2c(Cl)cccc2Cl)c1=O		inconclusive: 44.7 µM [inhibitor, partial curve, poor fit]
COc1cc(/C=C/C=C2/CC/C(=C/C=C/c3ccc(O)c(OC)c3)C2=O)ccc1O		inconclusive: 79.4 µM [inhibitor, partial curve, poor fit]
Cc1ccc(C(=O)NNC(=O)CSc2nc(N)cc(N)n2)cc1		inconclusive: 79.4 µM [inhibitor, partial curve, poor fit]
O=C(COC(=O)CCCN1C(=O)c2cccc3cccc(c23)C1=O)Nc1cccc(Br)c1		inconclusive: 89.1 µM [inhibitor, single point]
CNc1cc(CSC)nc(SCc2ccc(Cl)c(Cl)c2)n1	inactive: -15.6%	
CC1CCCC2(C1)NC(=S)N(c1ccccc1)N2 (stereo unspecified)		inconclusive: 50.1 µM [inhibitor, partial curve, poor fit]
Cc1cccc(C)c1NC(=O)CN(C)S(=O)(=O)c1ccc2c(c1)n(C)c(=O)c(=O)n2C	inactive: 6.64%	
COC(=O)CSc1nnc(C)n1-c1ccc(C)cc1	inactive: -25.7%	
COC(=O)c1cc(CSc2nnc(-c3ccccc3)c(-c3ccccc3)n2)oc1C		inconclusive: 79.4 µM [inhibitor, partial curve, poor fit]
CN=Cc1c(NC)nc2c(C)cccn2c1=O	inactive: -38.2%	
CCCCCCn1c(=O)[nH]c2nc3cc(N)ccc3nc2c1=O	inactive: -40.5%	
Cn1c(N2CCN(S(=O)(=O)c3ccc(Cl)cc3)CC2)nc2ccccc21	inactive: 7.94%	
CN(c1ccccc1)c1ccc(/C=N/N2CCOCC2)cc1	inactive: 12.2%	
CSc1cc(-c2ccccc2)n(Cc2ccccc2Cl)c(=O)c1C#N	inactive: 11.3%	
COc1ccc(-c2c(C)oc3c(CN4CCN(C)CC4)c(O)ccc3c2=O)cc1	inactive: 4.62%	
CCCn1nc(NC(=O)C2CCCO2)c2cc3ccc(C)cc3nc21 (stereo unspecified)	inactive: 6.47%	
S=c1nc(-c2sccc2OCc2ccc(Cl)cc2Cl)[nH][nH]1		inconclusive: 79.4 µM [inhibitor, partial curve, poor fit]
COC(=O)Cn1c(=O)c2c(nc3n2CCCN3Cc2ccccc2)n(C)c1=O		inconclusive: 100 µM [inhibitor, single point]
CCCCCCCCc1ccc(-c2ccc(C(=O)O)cc2)cc1		active: 21.2 µM

SMILES	activity change, negative = inhibition	Potency
COc1ccc(C[C@H]2CN3C(=NC[C@H]3Cc3ccccc3)N2CCNC(=O)c2ccc(C)c(Br)c2)cc1	inactive: -7.47%	
CC1=C/C(=N\N=C2\NC(=O)C(CC(=O)Nc3ccccc3)S2)CC(C)(C)C1 (stereo unspecified)		inconclusive: 100 µM [inhibitor, single point]
COc1cc(/C=C2/SC(=O)N(Cc3ccccc3)C2=O)ccc1OCc1ccncc1		inconclusive: 100 µM [inhibitor, single point]
Cn1c(=O)c([N+](=O)[O-])c(-n2ccnc2)c2ccccc21		inconclusive: 17.8 µM [inhibitor, full curve, poor fit]
COc1cc(NC(=S)NC2CC(C)(C)NC(C)(C)C2)c(OC)cc1Cl		inconclusive: 79.4 µM [inhibitor, single point]
[O-][n+]1c2ccccc2cc2ccccc21		inconclusive: 50.1 µM [inhibitor, partial curve, poor fit]
Cn1c(=O)oc2cc(S(=O)(=O)Nc3ccccc3)ccc21		inconclusive: 31.6 µM [inhibitor, full curve, poor fit]
CCCCCCCCCCCCS(=O)(=O)CCC(=O)O		inconclusive: 100 µM [inhibitor, single point]
CCCOc1ccc(C(=O)Nc2cc(S(=O)(=O)N3CCOCC3)ccc2N2CCN(CC)CC2)cc1OC		inconclusive: 89.1 µM [inhibitor, single point]
O=[N+]([O-])c1ccc(C[n+]2cccc3ccc4cccnc4c32)cc1		inconclusive: 20 µM [inhibitor, full curve, poor fit]
CC(C)C[C@@H](CNCC(=O)[C@H](Cc1ccccc1)NC(=O)c1[nH]cnc1C(=O)N[C@H](CN)CC(C)C)NC(=O)c1nc[nH]c1C(=O)N[C@@H](CC(=O)O)C(=O)O		inconclusive: 79.4 µM [inhibitor, partial curve, poor fit]
O=C(COc1ccc2ccccc2c1)NNC(=O)c1cccs1	inactive: 9.4%	
COc1cccc(COCCN2CCN(S(=O)(=O)c3ccc(C)cc3)CCC2=O)c1		inconclusive: 79.4 µM [inhibitor, partial curve, poor fit]
CCCCOc1ccccc1NC(=O)Cn1c(-c2nonc2N)nc2ccccc21		inconclusive: 100 µM [inhibitor, single point]
Cc1cccc(C(=O)Nc2cccc(C(=O)OCc3cc(=O)n4nc(C5CC5)sc4n3)c2)c1	inactive: -9.36%	
Clc1cccc(-c2ccc(-c3nc4ccccn4c3NCc3ccccc3)cc2)c1	inactive: 6.81%	
O=C1C=CC(=O)N1c1ccc(Nc2ccccc2)cc1		inconclusive: 35.5 µM [inhibitor, full curve, poor fit]
COc1cccc(CN(C)Cc2nc(Cc3ccccc3Cl)no2)c1	inactive: -23.4%	
Cc1cc(C)cc(N(CCC#N)C(=O)CSc2ncnc3sccc23)c1		inconclusive: 89.1 µM [inhibitor, single point]
O=C(Nc1nc(=O)n(C(=O)C2CC2)s1)c1ccccc1		inconclusive: 56.2 µM [inhibitor, partial curve, poor fit]
COc1ccc2c(-c3ccccc3)cc(SCC(=O)N(C)C3CCS(=O)(=O)C3)nc2c1 (stereo unspecified)		inconclusive: 50.1 µM [inhibitor, partial curve, poor fit]
CCOC(=O)c1c2c(n(-c3ccc(OC)cc3)c1C)C(=O)C(=O)c1ccccc1-2		inconclusive: 100 µM [inhibitor, partial curve, poor fit]

Source: PubChem BioAssay AID504845 (National Center for Advancing Translational Sciences (NCATS), 2011)
